Measured values published in PubChem BioAssay AID504332 (National Center for Advancing Translational Sciences (NCATS), 2011).
Screen size: about 350,000 compounds; about 31,000 (8.9%) were called active. Inconclusive means that the source gave no clear call. Such entries were picked first, then a sample of the others. Calls follow the shape of the dose curve; as a rule, active = well fitted inhibition curve with a large enough effect; inconclusive = small, poorly fitted or top-dose-only effect; inactive = no such curve, though single readings can be large or run the other way. Potencies of inconclusive entries are doubtful fits and often do not repeat.

Biological target: Histone-lysine N-methyltransferase EHMT2 (Homo sapiens) (UniProt Q96KQ7)
Chain of UniProt Q96KQ7 (Q96KQ7 whole entry, looked up): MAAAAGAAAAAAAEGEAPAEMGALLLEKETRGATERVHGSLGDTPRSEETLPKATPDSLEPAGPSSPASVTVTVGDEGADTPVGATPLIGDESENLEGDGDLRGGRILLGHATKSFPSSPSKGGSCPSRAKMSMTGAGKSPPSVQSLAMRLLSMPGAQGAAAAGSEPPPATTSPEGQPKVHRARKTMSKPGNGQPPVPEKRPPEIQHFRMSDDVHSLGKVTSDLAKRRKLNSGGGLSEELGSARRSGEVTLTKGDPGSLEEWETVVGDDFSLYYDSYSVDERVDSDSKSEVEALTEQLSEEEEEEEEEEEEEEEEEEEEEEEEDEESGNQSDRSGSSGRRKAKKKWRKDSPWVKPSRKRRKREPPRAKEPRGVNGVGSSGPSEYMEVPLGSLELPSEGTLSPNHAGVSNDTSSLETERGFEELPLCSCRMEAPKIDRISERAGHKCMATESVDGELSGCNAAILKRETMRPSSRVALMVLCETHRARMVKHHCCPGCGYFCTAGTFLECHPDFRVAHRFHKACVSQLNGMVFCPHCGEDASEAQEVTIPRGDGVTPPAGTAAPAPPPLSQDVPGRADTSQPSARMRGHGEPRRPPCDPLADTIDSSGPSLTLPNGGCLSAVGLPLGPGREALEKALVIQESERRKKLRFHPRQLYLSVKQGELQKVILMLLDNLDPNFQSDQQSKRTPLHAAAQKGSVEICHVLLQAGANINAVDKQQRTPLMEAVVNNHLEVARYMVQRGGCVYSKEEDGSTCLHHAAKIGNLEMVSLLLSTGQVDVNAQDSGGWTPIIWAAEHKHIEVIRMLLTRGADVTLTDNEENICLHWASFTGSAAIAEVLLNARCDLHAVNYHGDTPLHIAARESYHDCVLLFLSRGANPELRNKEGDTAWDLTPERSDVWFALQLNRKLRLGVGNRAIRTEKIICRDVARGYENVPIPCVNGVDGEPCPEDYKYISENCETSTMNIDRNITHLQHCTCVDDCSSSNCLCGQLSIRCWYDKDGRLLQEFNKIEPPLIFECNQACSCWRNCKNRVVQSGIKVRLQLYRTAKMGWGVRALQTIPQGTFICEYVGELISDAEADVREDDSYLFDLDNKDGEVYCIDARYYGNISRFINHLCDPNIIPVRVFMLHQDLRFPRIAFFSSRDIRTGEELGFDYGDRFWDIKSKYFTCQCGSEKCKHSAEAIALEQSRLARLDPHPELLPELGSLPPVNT
Assay: qHTS Assay for Inhibitors of Histone Lysine Methyltransferase G9a; also: nearly all actives have a fitted effect of over 75% in size
Details: G9a H3K9 monomethylation, AlphaScreen, 2 h; activity, negative = inhibition: at 59 µM (top of the series) unless noted
In short: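 Methyltransferase reactions run at room temperature for 2 h (20 nM enzyme, 500 nM biotin-H3K9 peptide, 20 uM SAM) after a 15 min compound preincubation; product detected by AlphaScreen beads and anti-H3K9me1 antibody.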
% is scaled to controls: 0 for no effect and ±100 for the full control effect; potency is read from the fitted curve at half-maximal effect; tags tell the direction and shape of the fitted curve.

SMILES | Potency | activity, negative = inhibition
CC(C)Oc1ccc(Cc2n[nH]c(=S)n2Cc2ccccc2)cc1Cl | active: 8.91 µM | –
CC(=O)c1nnn(-c2cccc([N+](=O)[O-])c2)c1C | inconclusive: 6.31 µM [inhibitor, partial curve, poor fit] | –
COC(=O)c1c(NC(=O)Cc2cccs2)sc2c1CCC(C)C2 (centres undefined) | – | inconclusive: -112% [inhibitor]
COc1ccc(C(=O)/C=C(\C)Nc2ccc3c(c2)OCO3)cc1 | active: 70.8 µM | –
CCOC(=O)C(N)CSC1CC(=O)N(c2ccc(OCC)cc2)C1=O (centres undefined) | inconclusive: 28.2 µM [inhibitor, single point] | –
O=C(Nc1ccccc1Cl)c1ccn[nH]1 | inactive | –
COc1ccc(-n2ncc(C(=O)N3CCc4ccccc4C3)c2C2CCN(C(=O)OC(C)(C)C)CC2)cc1 | inconclusive: 31.6 µM [inhibitor, partial curve, poor fit] | –
COc1ccc(CC(C(=O)Nc2cccc(F)c2)c2nn[nH]n2)c(OC)c1 (centres undefined) | inconclusive: 89.1 µM [inhibitor, single point] | –
N#C/C(C(=O)N1CCOCC1)=C1\Nc2ccccc2S1 | inconclusive: 1.26 µM [inhibitor, partial curve, poor fit] | –
O=C(Cc1csc(NC(=O)Nc2cccc(Cl)c2)n1)NCc1cccnc1 | active: 35.5 µM | –
O=C(Nc1ccc(Br)cc1F)c1ncoc1-c1ccco1 | – | inactive: 2.33% [at 12.7 µM]
CCOc1ccc(S(=O)(=O)N/N=C(\C)C2CCCCC2)cc1 | inactive | –
CSCCC1(C(=O)O)NC(c2ccccc2O)C2C(=O)N(C(C)C)C(=O)C21 (centres undefined) | inactive | –
COc1ccccc1NC(=S)NCc1ccccn1 | inconclusive: 31.6 µM [inhibitor, single point] | –
Cc1c(C(=O)OC2CCCC2)[nH]c2c1C(=O)CC(c1ccco1)C2 (centres undefined) | inconclusive: 39.8 µM [inhibitor, single point] | –
CCOc1ccc(C(O)c2nccn2Cc2ccccc2)cc1 (centres undefined) | inconclusive: 89.1 µM [inhibitor, single point] | –
COc1cccc(CNC(=O)c2ccc3c(c2)S(=O)(=O)N=C2CCCCCN23)c1 | inactive | –
COc1ccc(Cc2nnc(NC(=O)CSc3ccc(C)cc3)s2)cc1OC | inconclusive: 31.6 µM [inhibitor, full curve, poor fit] | –
COc1cc([N+](=O)[O-])ccc1NC(=S)NC(=O)CC(C)(C)C | – | inactive: 3.77% [at 12.7 µM]
O=C(NCc1nnnn1-c1ccc(F)c(F)c1)c1ccc(S(=O)(=O)N2CCOCC2)cc1 | inconclusive: 89.1 µM [inhibitor, single point] | –
CCN(C(=O)COC(=O)CNC(=O)c1ccc(C)c(C)c1)C1CCS(=O)(=O)C1 (centres undefined) | inconclusive: 39.8 µM [inhibitor, single point] | –
Cc1ccc(S(=O)(=O)N2CCC(C(=O)Nc3ccccc3N3CCCC3)CC2)c(C)c1 | – | inconclusive: -56.9% [inhibitor] [at 2.33 µM]
CCOc1cc(-c2nc(-c3ccc(Br)cc3)no2)cc(OCC)c1OCC | inactive | –
O=C(CSc1ncccn1)N/N=C/c1cccc(OC2CSC2)c1 | inactive | –
O=C(O)CCC(=O)Nc1ccc(-c2nnc(-c3ccco3)o2)cc1 | inconclusive: 89.1 µM [inhibitor, single point] | –

SMILES | Potency | activity, negative = inhibition
S=c1[nH]nc(-c2ccccc2)c2ccccc12 | inconclusive: 31.6 µM [inhibitor, full curve, poor fit] | –
CCCCN1C(=O)/C(=C/C=C2/CC(C)(C)CN2C)SC1=S | inconclusive: 1.58 µM [inhibitor, full curve, poor fit] | –
Cc1cccc(CSc2nc3c(c(=O)[nH]2)C(c2cccc(O)c2)CC(=O)N3)c1 (centres undefined) | inconclusive: 0.708 µM [inhibitor, partial curve, poor fit] | –
CCCCc1cc(=O)oc2cc(OCc3nn[nH]n3)c(Cl)cc12 | inconclusive: 0.891 µM [inhibitor, partial curve, poor fit] | –
CCOC(=O)c1c(NC(=O)c2cc(C(C)C)on2)sc(C)c1C | active: 20 µM | –
O=C(Nc1ccccc1C(=O)O)c1ccc2c(c1)C(=O)N(c1cccc([N+](=O)[O-])c1)C2=O | inconclusive: 89.1 µM [inhibitor, single point] | –
O=C1C2CC=CCC2C(=O)N1c1ccc(NCCc2cccc(F)c2)c([N+](=O)[O-])c1 (centres undefined) | active: 44.7 µM | –
Cc1sc(NC(=O)c2ccccc2)c(C(c2ccccn2)N2CCN(CCO)CC2)c1C (centres undefined) | inconclusive: 31.6 µM [inhibitor, full curve] | –
CCOC(=O)c1c(NC(=O)c2ccoc2C)sc(C)c1C | – | inactive: 4.2% [at 2.33 µM]
Fc1ccc(-c2ccnc3nc(N4CCOCC4)nn23)cc1 | inconclusive: 100 µM [inhibitor, single point] | –
O=C(N/C(=C\c1cccnc1)C(=O)N1CCC(O)CC1)c1ccccc1 | inactive | –
COc1cccc(N2CCN(c3ccc([N+](=O)[O-])cn3)CC2)c1 | inactive | –
CC(C)c1ccccc1OCC(=O)Nc1ccc2[nH]ncc2c1 | active: 70.8 µM | –
CCOC(=O)C(NC(=O)c1cccnc1)(Nc1cccc(C)n1)C(F)(F)F (centres undefined) | – | inactive: 5.89% [at 2.33 µM]
Cc1ccc(/C(O)=C2/C(=O)C(=O)N(c3ccccn3)C2c2ccc([N+](=O)[O-])cc2)cc1 (centres undefined) | active: 70.8 µM | –
COCCCN(CC(=O)O)S(=O)(=O)c1cccc(Cl)c1 | active: 50.1 µM | –
CCOc1ccc(S(=O)(=O)n2nc(C)c(S(=O)(=O)N3CCCCC3)c2C)cc1 | inactive | –
CCc1ccc(C2CC(c3ccc(F)cc3)Nc3nc(N)nn32)cc1 (centres undefined) | inconclusive: 1.41 µM [inhibitor, partial curve, poor fit] | –
COc1cc(/C=C/C(=O)O)ccc1OCc1ccccc1C#N | inactive | –
COc1ccc([N+](=O)[O-])cc1NC(=O)C(C)N1CCN(C(=O)c2ccco2)CC1 (centres undefined) | inconclusive: 39.8 µM [inhibitor, partial curve] | –
COc1ccc(/C(C)=N/NS(=O)(=O)c2ccccc2)c(OC)c1 | inconclusive: 79.4 µM [inhibitor, single point] | –
CCN(CC)C(=O)CSc1nc(-c2ccc(C)cc2)nc2c1COC(C)(C)C2 | inactive | –
CCN1C(=O)C(CC(=O)Nc2ccc(OC)cc2)N(CCc2ccc(OC)cc2)C1=S (centres undefined) | inactive | –
O=C(CNC(=O)C(c1ccccc1)c1ccccc1)N/N=C\c1ccc2c(c1)OCO2 | inactive | –
Cc1ccc(C2C(C#N)=C(N)N(c3ncn[nH]3)C3=C2C(=O)CC(C)(C)C3)cc1 (centres undefined) | inconclusive: 28.2 µM [inhibitor, single point] | –

SMILES | Potency | activity, negative = inhibition
Cc1c(Br)c(C(F)(F)F)nn1CC(=O)NCc1ccccc1 | inactive | –
COc1ccc(C(=O)Nc2cc3c(cc2N2CCCC2)n(C)c(=O)c(=O)n3C)cc1OC | inconclusive: 8.91 µM [inhibitor, partial curve, poor fit] | –
COc1ccc(S(=O)(=O)N2CCCC(C(=O)NCCC3=CCCCC3)C2)cc1 (centres undefined) | inconclusive: 89.1 µM [inhibitor, single point] | –
COc1ccc(C(C)=O)cc1CSc1nc2cc(C(=O)O)ccc2c(=O)n1Cc1ccccc1 | inconclusive: 89.1 µM [inhibitor, single point] | –
CC(=O)c1cc(-c2ccccc2)n(CCC(=O)NC(C)c2ccccc2)c1C (centres undefined) | inactive | –
O=C(O)CC1Sc2nc3ccccc3n2C1=O (centres undefined) | active: 44.7 µM | –
CC(C)(C)OC(=O)N1CCC(c2c(C(=O)NCc3ccco3)cnn2-c2ccccc2Cl)CC1 | inconclusive: 8.91 µM [inhibitor, partial curve, poor fit] | –
Cc1nnsc1C(=O)N1CCN(c2ccc(C#N)cn2)CC1 | inactive | –
Cc1ccc(N(C(=O)CNC(=O)c2ccco2)C(C(=O)NCC2CCCO2)c2ccccc2)c(C)c1 (centres undefined) | inactive | –
CC(=O)N1CCC(=NNC(=O)CSc2cc(C)c(Br)cc2C)CC1 | inactive | –
Nc1c(N2CCN(c3ccccc3)CC2)c2ccccc2oc1=O | inconclusive: 28.2 µM [inhibitor, single point] | –
CC(/C=C1\SC(=S)N(CCC(=O)Nc2ccccc2O)C1=O)=C\c1ccccc1 | inactive | –
Nc1nnc(-c2ccc(Cl)c(Cl)c2)s1 | active: 44.7 µM | –
Cc1ccc(CSCC(=O)N(CCC(C)C)c2c(N)n(Cc3ccccc3)c(=O)[nH]c2=O)cc1 | – | inactive: 4.45% [at 0.501 µM]
OCCNCCSc1ccc(Cl)cc1 | active: 50.1 µM | –
COc1ccc(C(=O)Nc2cc(S(=O)(=O)c3ccc(Cl)cc3)c(O)c(C)c2C)cc1 | inactive | –
O=C(CCN1C(=O)/C(=C\c2ccc(F)cc2)SC1=S)Nc1ccccc1 | inactive | –
COc1ccc(CNC2c3ccccc3-c3ccccc32)cc1OC | inconclusive: 89.1 µM [inhibitor, single point] | –
O=C1CSC(=S)N1c1cccc(Br)c1 | inconclusive: 50.1 µM [inhibitor, partial curve, poor fit] | –
O=C(/C=C/c1ccc(OCCCF)cc1)N1CCN(Cc2ccccc2)CC1 | inconclusive: 79.4 µM [inhibitor, partial curve, poor fit] | –
Cc1cc(C)c(-c2csc(NC(=O)c3n[nH]c(=O)c4ccccc34)n2)c(C)c1 | inconclusive: 89.1 µM [inhibitor, single point] | –
CC(SC#N)C(=O)C12CC3CC(CC(C3)C1)C2 (centres undefined) | inactive | –
CNC(=O)C(C#N)(Cc1cc(C(C)=O)ccc1OC)Cc1cc(C(C)=O)ccc1OC | inactive | –
CCOc1cc(C(=O)Nc2ccc(-c3nc4ccccc4s3)cc2Cl)cc(OCC)c1OCC | inactive | –
